The other results are listed elsewhere or left out.
B1: chr4:140309118:140309119:+_ENSG00000164134_ENST00000296543|hu_hu|FALSE|FALSE (ssRNA)
RNA: GGGAGUUCUACAGUCCGACGAUCAUAUCCAGGAGGCAUGAAAGCCAAAGCAUAAGGGAAAAGCUUAUGACAAUUUGCUCUAUAAAUUUCAGCAGCUUCUUUACAGUCUCCUAGGCUACCAUCAUACAAGGCUUCCAAUACCUCCAACAGAGGAUUGAGCAUCA
B2: chr2:122217683:122217684:-_ENSG00000074054_ENST00000409078|hu_hu|motif|central (ssRNA)
RNA: GGGAGUUCUACAGUCCGACGAUCACGCAAAUGUUGAAAGAAGUUAUCAUACUCAGCAGCACCAGCCAAAAGUAAAGAUCGGAUCUUUUUUAGAGCAUUUACUCUCUGCUCCCAAUCAUGCUUGUCAUCAGAUAAUAUUUCCCUCAACAGAGGAUUGAGCAUCA
B3: 102499477_102499683_10379_CDS_ENSG00000197102_ENST00000360184|human|control|control (ssRNA)
RNA: GGGAGUUCUACAGUCCGACGAUCGUCCUUGGCGUCAUCUUCCAGCUUCUGCAGCUCAUUGCGUAGGGGCUCCACUCUCUUUAACAUGUCUGCAUAGUUAAGCUGUGCAAUUGCCCAUUUCACCAUAGGGCCGCAAGCCAGGGACAACAGAGGAUUGAGCAUCA
B4: chr8:59359966:59359967:+_ENSG00000215114_ENST00000399598|hu_mus|motif|central (ssRNA)
RNA: GGGAGUUCUACAGUCCGACGAUCCGCAAAUUCAGGACGUGACCGUACUAUAAAGUCUCGUACAUCCAGAAUCCGGUGUGUGCGGUUGAAUCUCUGUACGAGACGACUUCCAUCUGCCAACCUGAUCUGAAUUUUUGUGGUGGGCAACAGAGGAUUGAGCAUCA
B5: chr11:50196439:50196440:+_ENSMUSG00000007850_ENSMUST00000069304|mus_mus|FALSE|FALSE (ssRNA)
RNA: GGGAGUUCUACAGUCCGACGAUCCCCAUAUCUGUGGUCAGACAUUCCUGAAAAACAAUAAUUGAGGUCUCUUCCAAAUCUAUCUGAACCAAAUCCAUAGCCAUCAUUAUAGCCAUUAUAAUCAUCAUAGCCUCCAUAGCCUCCCAACAGAGGAUUGAGCAUCA
B6: chr9:79616815:79616816:-_ENSMUSG00000032328_ENSMUST00000034878|mus_hu|FALSE|FALSE (ssRNA)
RNA: GGGAGUUCUACAGUCCGACGAUCAAGACACCUGAACAUAGCAAAAUUAAUUUUGUUCAUUUUUAUUAACAUAGGACAUACUAACCAAAUAUUAUCAUUUAAUAAAAUCAACGUUACAAAGAAACUCACUAGCAAAUAAACAAACAACAGAGGAUUGAGCAUCA
B7: chr3:37096630:37096631:-_ENSG00000093167_ENST00000421276|perfect_dup|motif|central (ssRNA)
RNA: GGGAGUUCUACAGUCCGACGAUCUUGUUCCAAGGUAGCUAUGUCUUGUUCUGCUUUCGAAAGCUUGAAUUUGUAUUCACGGAUUUGUCUAUUGGCAUCUCUCUGCAUCUCGAUGAACUGCAAGUCUGAGCCGUUCUGCAGUCCCAACAGAGGAUUGAGCAUCA
B8: 47738096_47738216_1977_3pUTR_ENSMUSG00000023988_ENSMUST00000024783|mouse|control|control (ssRNA)
RNA: GGGAGUUCUACAGUCCGACGAUCGACAGGGAGGAGCCAGCAGUGACUCCCACCUCUCCCGUGGGUGACAGGGGAGAGAGGCAGGGACCUCCAGGGACCAAAACACAAGAGCUGCGAUAAAUAAAUGCCUGUUUUCUCCGCACCCAACAGAGGAUUGAGCAUCA
B9: chr14:94519448:94519449:-_ENSG00000089737_ENST00000330836|hu_mus|FALSE|FALSE (ssRNA)
RNA: GGGAGUUCUACAGUCCGACGAUCUGAGUUGUGCAGACAAGCCUGGAAGUUCCGGUAUUCAGCUUUUUCAAUCUGUCGGGCUAGACGGAUCCGCUCCUUGACCACAUCCAUGUACUUGGACUGCACUGGAAACAGUGGGAUGUCCAACAGAGGAUUGAGCAUCA
B10: chr5:121736274:121736275:+_ENSMUSG00000042744_ENSMUST00000119892|mus_mus|motif|central (ssRNA)
RNA: GGGAGUUCUACAGUCCGACGAUCCUGGUGAAUGCACAUGGCGCCAACAUGGUGCAGUAACUGGUUUAUGACUUCAUUUGUGCGGAUGGCCUCUUCUUUGGGCUCGGUGAUGAUAUGGCUGACACCCAGUCUCUGGCACACGUACAACAGAGGAUUGAGCAUCA
B11: chr5:43656058:43656059:+_ENSG00000112992_ENST00000512996|hu_hu|motif|central (ssRNA)
RNA: GGGAGUUCUACAGUCCGACGAUCGUAGGCCACAAUCUUGGUGAGAUUUGCUGCUGCAUCCGUAGCAAAAUGUGGAUAUUCGGUAAUGUACUCAGCUAUGCAAGUAAGUACAGCUGCCAAACCCACUAAACUGUGAAAAGCAGCCAACAGAGGAUUGAGCAUCA
B12: chr12:2981354:2981355:-_ENSG00000111206_ENST00000359843|hu_hu|motif|central (ssRNA)
RNA: GGGAGUUCUACAGUCCGACGAUCGCGGGAGCCCAGUCCAUCAGAACUCAUCUUUCGAAGCCACUGGAUGUUGGAUAGGCGGUUGUUGAUAGUGCAGCCUGCUGCCUCACCAUCUGCACAGGUCUCCCGUUUCUGCUCGCAAAGCAACAGAGGAUUGAGCAUCA
B13: 107696830_107697939_2073_CDS_ENSMUSG00000019907_ENSMUST00000070663|mouse|control|control (ssRNA)
RNA: GGGAGUUCUACAGUCCGACGAUCUCUUCCUAUUGUUUUUUCAGCUUCCUGAAGAUCAGUCAGUGUUACCCCCUGUGUUGACCGUCUAGACUGUCUUGCUUGUCUAGAUCUUGCUUUUCUUUGGGAUUCAGACUCUUCGUCCCUCAACAGAGGAUUGAGCAUCA
B14: chr18:67943652:67943653:+_ENSMUSG00000079614_ENSMUST00000025421|mus_mus|FALSE|FALSE (ssRNA)
RNA: GGGAGUUCUACAGUCCGACGAUCAGUUGUCCUCUUCACCCAGUGACUCUGUCCUCGAAGUUUAUCGUUUGAUUCUCCCACUAUUUCUUCCCAUACAGCUGCUGUUCGGUCAAAAGAACAGGAAGCCAAAACUUGUCCAAAUUCCAACAGAGGAUUGAGCAUCA

Each binder was assayed against T1, UNK ZnF1-3 (human, UniProt Q9C0B0 31-174) (assay: nsRBNS (natural sequence RNA bind-n-seq); RBNS binding buffer (assumed for nsRBNS): 25 mM Tris pH 7.5, 150 mM KCl, 3 mM MgCl2, 0.01% Triton X-100, 500 ug/ml BSA, 20 U/ml SUPERase-In, 4 C; UNK is unkempt and MSI1 is Musashi-1; names of the RNAs are library labels; protein concentration not given here; high values mean tight binding).
T1 sequence: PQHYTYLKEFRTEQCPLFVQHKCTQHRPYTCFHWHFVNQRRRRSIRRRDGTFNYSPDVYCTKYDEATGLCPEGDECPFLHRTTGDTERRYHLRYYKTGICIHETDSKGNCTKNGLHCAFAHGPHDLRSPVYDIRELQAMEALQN

| Binder | binding signal |
| --- | --- |
| B1 | 0.811 enrichment R |
| B2 | 1.41 enrichment R |
| B3 | 0.45 enrichment R |
| B4 | 0.701 enrichment R |
| B5 | 1.49 enrichment R |
| B6 | 1.51 enrichment R |
| B7 | 0.553 enrichment R |
| B8 | 1.78 enrichment R |
| B9 | 0.738 enrichment R |
| B10 | 0.83 enrichment R |
| B11 | 0.53 enrichment R |
| B12 | 0.731 enrichment R |
| B13 | 0.251 enrichment R |
| B14 | 1.03 enrichment R |

Source: article PMC12136788
